# In the supplement of paper PMC5499739:
# Over roughly 16,000 sequences, “Z-score” has its median near -0.37; the highest 2% begin near 3.1. This is one part of the list.
# System: RBM10 RRM1-ZnF-RRM2 (GST-tagged construct)
# Assay: RNAcompete 7-mer binding Z-score; higher = stronger binding preference
# In short: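 Bound RNA was identified by microarray hybridisation after GST-tagged RBM10 constructs (20 pmol) had been mixed with 1.5 nmol of a designed pool of 241 399 RNAs up to 41 nt, transcribed from microarray-derived DNA templates. Binding ran for 30 min at 4°C in 1 ml Hepes pH 7.8 buffer with KCl, NaCl, glycerol, DTT, BSA and glutathione Sepharose beads, with four 2-min washes at 4°C afterwards. For every heptamer motif, a one-sided Z-score for enrichment was computed across the probes that contained it.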
row,Sequence,RNAcompete 7-mer binding Z-score
1,UAGUGUG,0.603
2,GAGGGGC,2.44
3,CUAAGUU,-0.439
4,ACUUAGA,-0.53
5,CAGCUAA,-0.468
6,CGAAGUC,-0.635
7,UUUUCCU,-0.81
8,GAGCUGU,-0.227
9,GUAGCAG,0.931
10,AUCACGA,-0.406
11,CGACGGC,0.126
12,GCCCGUG,-0.373
13,AUAAGCU,-0.391
14,CCAUUAU,-0.905
15,UAUGAGC,-0.154
16,GAAACCG,-0.122
17,AGGCCUC,-0.828
18,UACGUUG,-0.187
19,UAGGCCU,-0.595
20,CUAAGAU,-0.453
21,GGAGGUU,2.23
22,GCCCUUA,-0.766
23,UAAUAAG,0.0313
24,UUCUCUA,-0.806

row,Sequence,RNAcompete 7-mer binding Z-score
1,GUAUCAG,0.294
2,GUAAUAG,0.508
3,UAAGUCC,-0.719
4,UAUUAUC,-0.537
5,UUCUACC,-0.883
6,UUGGAAU,0.57
7,UCACGGA,0.00216
8,CGCGCGU,-0.362
9,AUUUCUU,-0.788
10,AAGGAUU,1.71
11,AUGGUGC,0.789
12,ACUUCUA,-0.999
13,UUCUAGU,-0.551
14,UGUUCUG,-0.704
15,GUCUAGC,-0.581
16,GAUGUUU,-0.296
17,GUUCGAU,-0.519
18,UGGUUCU,-0.431
19,AGGCCAA,-0.202
20,UGUCUGA,-0.65
21,UAUGUAU,-0.34
22,CUUAAUC,-0.905
23,CAUUCGU,-0.694
24,CCACGGU,-0.355

row,Sequence,RNAcompete 7-mer binding Z-score
1,UUGUCGU,-0.551
2,UGUUCUU,-0.792
3,GCUAUGG,0.709
4,GCGCUAG,-0.0816
5,GGGAGGU,3.39
6,UAAUUCA,-0.409
7,GACUGAC,-0.409
8,CGCUCCG,-0.777
9,UUGUUCG,-0.486
10,ACCCGCC,-0.89
11,UUCACCC,-0.843
12,CGAACAU,-0.428
13,CUUUUAC,-0.785
14,UGGCUAU,-0.00148
15,CAUCUGU,-0.854
16,CUGGCAA,-0.435
17,UCUCUUG,-0.679
18,GACUAGA,-0.122
19,CUGGGAA,1.36
20,UCUUACA,-0.723
21,GCGCUCU,-0.639
22,CUGCCUA,-0.879
23,CGAGACA,-0.118
24,GCCACUU,-0.992

row,Sequence,RNAcompete 7-mer binding Z-score
1,CAGGCGG,1.96
2,CCCUAUG,-0.836
3,UAUUCCC,-0.795
4,AUCCAUA,-0.752
5,ACACUUG,-0.602
6,UGGGAUA,2.85
7,ACCGAAU,-0.653
8,CCGCUGA,-0.723
9,AACGCAG,0.0277
10,AAGUAGG,2.79
11,AAAAUAU,-0.333
12,CCGCACG,-0.61
13,UUGCAAG,-0.213
14,UGUACUU,-0.715
15,UCCAGCG,-0.428
16,UAAGAUU,-0.413
17,CUUAUUG,-0.777
18,UGUGACU,-0.242
19,UUGUAGU,-0.322
20,UGCUAUA,-0.515
21,UAUUUAU,-0.573
22,UCCACGC,-0.734
23,AGCUAAA,-0.256
24,GCAGUUG,0.352

row,Sequence,RNAcompete 7-mer binding Z-score
1,CCCGUUG,-0.69
2,GAAACGU,0.101
3,GCUAAUU,-0.697
4,GGAAAUG,2.83
5,CUGGUAC,-0.209
6,CAACUCC,-0.628
7,UUUUGAU,-0.621
8,UGAGACC,-0.391
9,AAGAAAC,-0.0925
10,AGUGUCU,-0.624
11,UAAGAUG,0.363
12,AAUGAAG,0.599
13,GGCCCCU,-0.646
14,UGGCUCU,-0.57
15,GCUGUUG,-0.442
16,ACCGCCA,-0.744
17,CGAUGUG,0.173
18,CGGCAAA,0.406
19,GCUUCUA,-0.821
20,CUAUACG,-0.646
21,AAUGCAU,-0.402
22,CUUCGAC,-0.777
23,GAUGGGC,2.09
24,UCCGGAA,-0.242

row,Sequence,RNAcompete 7-mer binding Z-score
1,UGCCACC,-0.759
2,UAGUCGU,-0.176
3,GAGUGGC,1.81
4,UAGAACU,-0.231
5,GCAGAGC,0.691
6,GAUCGUG,0.221
7,GUCGGAA,0.92
8,GGCCCUC,-0.836
9,UCGAGAU,-0.246
10,GAGAGGA,2.15
11,CCUAGUU,-0.781
12,CUUGUAG,-0.5
13,GAUCCCC,-0.526
14,UAUAAUU,-0.493
15,UCCAGCA,-0.533
16,UAGGUCU,0.0204
17,GUGUGCG,1.39
18,UGACGCU,-0.69
19,AUGUCUC,-0.661
20,UAACAAC,-0.442
21,UGUCACC,-0.628
22,ACCCACC,-0.584
23,GUAGUUG,0.945
24,UUCGGAU,-0.256

row,Sequence,RNAcompete 7-mer binding Z-score
1,AAAAAUC,-0.475
2,ACGAUAG,0.468
3,CCCCUCA,-0.606
4,GACUAAG,0.141
5,UAAGCAA,-0.0816
6,AUCACAA,-0.402
7,ACACUCG,-0.639
8,CGGAAGA,0.862
9,GGGAAUU,1.91
10,GGUCGGA,1.6
11,UACCGAC,-0.65
12,ACGGACG,0.884
13,UACGAAU,-0.151
14,AAAAGGU,2.52
15,CUAUACC,-0.726
16,AACGUUG,-0.0124
17,UGCAACA,-0.3
18,AGAAUAC,-0.318
19,GAUCAAC,-0.366
20,GGCUGUA,0.0058
21,CUAUUGU,-0.602
22,UGUAAGA,0.202
23,UGCACAC,-0.413
24,CCGUUAC,-0.777

row,Sequence,RNAcompete 7-mer binding Z-score
1,ACAAACA,-0.187
2,UCGGGUA,1.57
3,UCUAGAG,-0.486
4,UAUAAAU,-0.428
5,CGGUCAA,-0.333
6,CUAACAG,-0.369
7,AAGCCAG,-0.318
8,CAAGCAA,-0.103
9,UAUACAC,-0.424
10,GCCUCAA,-0.821
11,CUGAGAC,-0.402
12,CUGAGCC,-0.668
13,GUGUUGG,1.79
14,GAGGUCA,0.545
15,UUAUGAA,-0.369
16,GCACUCA,-0.632
17,GAGGGCU,1.27
18,CUUAUCC,-0.865
19,GAUCACC,-0.657
20,AGGCUCC,-0.624
21,UAAGUCA,-0.0816
22,GGACUCU,-0.541
23,AUAGGGC,2.14
24,CUCAUAA,-0.887

row,Sequence,RNAcompete 7-mer binding Z-score
1,CACGCGG,0.294
2,CCGGAAG,0.352
3,GCUGAUC,-0.453
4,AAAUCGA,-0.0452
5,GUCAUUU,-0.53
6,UGACGAC,-0.235
7,CCAGUCU,-0.741
8,UUGGGAG,2.51
9,GGUUCAC,-0.0488
10,AUGUAAA,0.0386
11,ACCCCCG,-0.544
12,UUAGUAA,-0.355
13,GCGGAGG,3.25
14,UGGGUUC,1.07
15,GUCCUUC,-0.814
16,CGAGAGU,0.141
17,GCAGGAC,1.14
18,CUGGGAC,0.905
19,CAGUUUG,-0.384
20,CACAGAG,0.195
21,GUUCCAG,-0.227
22,GUGCUAC,-0.235
23,AAUAAUU,-0.482
24,UCAAGGA,1.02

row,Sequence,RNAcompete 7-mer binding Z-score
1,CCUAUUC,-0.989
2,CCCCGUC,-0.624
3,CUGGCUU,-0.592
4,GAGAAAC,0.246
5,CUAGUCA,-0.555
6,AUCACCG,-0.592
7,UUCCUCA,-0.843
8,GCCAGCA,-0.205
9,CGUGCGA,-0.209
10,AGGUUCA,0.192
11,CAGCACA,-0.442
12,GGGGUCA,3
13,AUAAAGU,-0.0598
14,CGUGUUU,-0.544
15,CAGACCC,-0.657
16,AAUGGUG,2.35
17,GAGAAUC,0.075
18,GUAUGGU,2.04
